In patent US6348573:

Biological target: recombinant FADD (purified, detected with anti-(His)6 antibody) (UniProt Q13158)

## Flag-tagged RICK (RIP-like interacting CLARP kinase), pcDNA3-Flag-RICK (letters omitted)
  in vitro kinase assay: phosphorylation of recombinant FADD by RICK immunoprecipitates with [gamma-32P]ATP: RICK induced phosphorylation of FADD
